Drawing on the RNAGym collection of RNA variant scans (doi:10.1093/nar/gkz1192), this text covers self-cleavage for 34 variants.

The source gives no read counts; variants with many changes may rest on few reads.

The labels stand for the following.
B1: CPEB3 Ribozyme (parent)
chain: UAACAGGGGGCCACAGCAGAAGCGUUCACGUCGCAGCCCCUGUCAGAUUCUGGUGAAUCUGCGAAUUCUGCUGUAUAUCUC

Variants of B1 are the subject of this series. The experiment in a line: self-cleavage, relative activity (ratio to wild type); higher = more cleavage; in vitro, sequencing. The gist of the method:
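For each CPEB3 ribozyme variant, relative activity is its cleaved/total read fraction divided by the unmutated ribozyme's. Barcoded error-prone PCR libraries were transcribed by T7 RNA polymerase (5 hours, 37°C) and held in DNase I for 15 min before an EDTA stop, with cleavage occurring throughout. Template-switching reverse transcription and Illumina sequencing were used to read the RNAs. A 5-read minimum applied, and results are the mean of three batches.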
Regarding UAACAGGGGGCCGCGGCAGAAGCGUUCACGUCGCAGCCCCUGUCAGAUUCUGGUGAAUCUGCGGAUUCUGCUGUAUAUCUC, the self-cleavage is 0.26. For the variant UAACAGGGGGCCCCAGCAGAAGCGUUCACGUCGCAGCCCCAGUCAGAUUCUGGUGAAUCUGCGAAUUCUGCUGUGUAUCUC, the self-cleavage came out at 0.11. Under UAACAGGGGGCCGCGGCAGAAGCGUUCACGUCGUAGCCCCUGUCAGAUUCUGGUGAAUCUGCGAAUUCUGCUGUAUAUCUC stands 0.27. As to UAACAGGGGGCCGCCGCAGAAGCGUUCACGUCGCAGCCCCUGUCAGGUUCCGGUGAAUCUGCGAAUCCUGCCGUAUACCUC, the self-cleavage was determined as 0.33.

On to UAACAGGGGGCCGCGGCAGAAGCGAUCACGUCGCAGCCCCUGUCAGAUUCUGGUGAAUCCGCGAAUUCUGCAGUAUAUCUC, for which the self-cleavage turned out to be 0.08. Under UAACAGGGGGCCCCAGCAGAAGCGUUCACGUCGCAGCCCCCGUCAGAUUCUGGUGAAUCCGCGAAUUCUGCUGUACAUCCC stands 0.92; under UAACAGGGGGCCCCAGCAGAAGCGUUCACGUCGCAGCCCCUGUCAGAUACUGGUGAAUCUGCGGAUUCUGCUGUAUAUCUC, 0.14; under UAACAGGGGGCCGCGGCAGAAGCGUUCACGUCGCAGCCCUUGUCAGAUUCUGGUGAAUCUGCGAAUCCUGCUGUAUAUCUC, 0.14. Consider UAACAGGGGGCCGCGGCAGAAGCGUUCAUGUCGCAGCCCCUGUCAGAUUCUGGUGAAUCUGCGAAUUCUGCUGCAUAUCUC, for which the self-cleavage is 0.24.

In the case of UAACAGGGGGCCCCAGCAGAAGCGUUCACGCCGCAGCCCCUGUCAGAUUCUGGUGAAUCUGCGAAUCCUGCUGUAUAUCUC, the self-cleavage amounted to 0.43. Under UAACAGGGGGCCCCAGCAGAAGCGUUCACGUCGCAGCCCCUGUCAGAUCCUGGUGAAUCUGCGAGUUCUGCUGUAUAUCUC stands 0.22; under UAACAGGGGGCCCCAGCAGAAGCGUUCACGCCGCAGCCCCUGUCAGAUUCUGGUGAAGCUGCGAAUUCUGCCGUAUAUCUC, 0.23; under UAACAGGGGGCCGCGGCAGAAGCGUUCACGUCGCAGCCCCUGUCAGAUUCUGGUGAAUCUGCGAGUUCUGCUGAAUAUCUC, 0.31. On to UAACAGGGGGCCGCGGCAGAAGCGUUCACGACGCAGCCCCUGUCAGAUUCUGGUGAAUCUGCGAAUUCUGCUGUAUAUCUC, for which the self-cleavage came to 0.33. As for UAACAGGGGGCCCCAGCAGAAGCGUUCACGUCGCAGCCCCUGUCAGAUUCCGGAGAAUUUGCGAAUUCUGCAGUAUAUCUC, the self-cleavage was 0.34. For the variant UAACAGGGGGCCGCGGCAGAAGCGUUCACGUCGCGGCCCCCGUCAGAUUCUGGUGAAUCUGCGAAUUCUGCUGUAUAUCUC, the self-cleavage is 0.48. Under UAACAGGGGGCCGCGGCAGAAGCGUUCACGUCGCAGCCCCUGUCGGAUUCUGGUGAAUCUGCGAAUUCCGCUGUAUAUCUC stands 0.11. With UAACAGGGGGCCGCGGCAGAAGCGUUCACGUCGCAGCCCCUGUCAGAUACUGGUGAAUCCGCGAAUCCUGCUGUACAUCUC, the self-cleavage was determined as 0.03.

For UAACAGGGGGCCGCGGCAGAAGUGUUCACGUCGCAGCCCCUGUCAGAUUCUGGUGAAUCUGCGAAUUCUGCUGUAUAUCUC, the self-cleavage stood at 0.31. Under UAACAGGGGGCCGCCGCAGAAGCGUUCACGUCGCAGCCCCUGUCAGAUUCUGGUGGAUCUGCUGAUUCUGCUGUAUAUCUC stands 0.41.

Consider UAACAGGGGGCCGCGGCAGAAGCGUUCACGUCGCAGCCCCUGUCAGAUUCAGGUGAAUCCGCGAAUUCUGCUGUAUAUCUC, for which the self-cleavage turned out to be 0.16. With UAACAGGGGGCCGCGGCAGAAGCGUUCACGUCGCUGCCCCCGUCUGAUUCUGGUGAAUCUGCGAAUUCUGCUGUAUAUCUC, the self-cleavage was 0.38. With UAACAGGGGGCCGCGGCAGAAGCGUCCACGUCGCAGCCCCUGUCAGAUUCUGGUGAAUCAGCGAAUUCUGCUGUAUAACUC, the self-cleavage stood at 0.43. Take UAACAGGGGGCCGCGGCAGAAGCGUUCACGUCGCAGCCCCUGUCAGAUUCUGGUGAUUCUGCGAAUUCUGCUGUAUAUCUC: the self-cleavage stood at 0.17. The value for UAACAGGGGGCCGCGGCAGAAGCGUUCGCGUUGCAGCCCCUGUCAGACUCUGGUGAAUCUGCGAAUUCUGCUGUAUAUCUC was 0.12; that for UAACAGGGGGCCCCAGCAGAAGCGUUCACGUCGCAGCCCCUGCCAGAUUCCGGCGAAUCUGCGAAUUCUGCUGUAUAUCUC was 0.45; that for UAACAGGGGGCCGCGGCAGAAGCGUUCACGUCGCAGCCCCUGUCAGAUCCUGGUGAAUCUGCGUAUUCUGCUGUAUAUCUC was 0.12. Under UAACAGGGGGCCCCAGCAGAAGCGUUCACGUCGCAGCCCCUGUCAGAUUCUGGGGAAUCUGCGUAUUCUGCUGUAUAUCUC stands 0.21.

For the variant UAACAGGGGGCCGCGGCAGAAGCGUUCACGUCGCAGCCCCUGGCAGAUUCUGGUGAAUCUGCGAAUUCUGCUGUAUGUCUC, the self-cleavage stood at 0.28. As to UAACAGGGGGCCGCGGCAGAAGCGUUCACGUCGCAGCCCUUGUCAGAUUCUGGUGAGUCUGCGAAUUCUGCUGUAUACCCC, the self-cleavage is 0.29. The value for UAACAGGGGGCCGCCGCAGAAGCGUUCACGUCGCAGCCCCUGACAGAUUCCGGUGAAUCUGCGAGUUCUGCUGUAUAUCCC was 0.28. Take UAACAGGGGGCCGCGGCAGAAGCGUUCACGUCGCAGCCCCUGUCUGGUUCUGGUGAAUCAGCGAAUUCUGCUGUAUAUCUC: the self-cleavage was 0.16. Under UAACAGGGGGCCGCGGCAGAAGCGCUCACGUCGCAGCCCCUGUCAGAUUCUGGUGAAUCUGCGAAUUCUGCUGUAUACCUC stands 0.09.

Consider UAACAGGGGGCCGCGGCAGAAGCGUUCACGUCGCAGCCCCCGUCAGAAUCUGGUGAAUCUGCGAAUUGUGCUGUGUACCUC, for which the self-cleavage worked out at 0.03.
